# Laboratory results reported in PubChem BioAssay AID504332 (National Center for Advancing Translational Sciences (NCATS), 2011).
# The campaign covered roughly 350,000 compounds. About 31,000 (8.9%) were called active. The shares of active, inactive and inconclusive entries below differ from those in the screen. The call rests on the fitted dose curve; in most records, active means well fitted inhibition curve with a large enough effect; inconclusive means small, poorly fitted or top-dose-only effect; inactive means no such curve, though single readings can be large or run the other way. A potency beside an inconclusive call is a rough fit, not a confirmed value.
# Molecular target: Histone-lysine N-methyltransferase EHMT2 (Homo sapiens) (UniProt Q96KQ7)
# UniProt Q96KQ7, sequence (Q96KQ7 whole entry, looked up): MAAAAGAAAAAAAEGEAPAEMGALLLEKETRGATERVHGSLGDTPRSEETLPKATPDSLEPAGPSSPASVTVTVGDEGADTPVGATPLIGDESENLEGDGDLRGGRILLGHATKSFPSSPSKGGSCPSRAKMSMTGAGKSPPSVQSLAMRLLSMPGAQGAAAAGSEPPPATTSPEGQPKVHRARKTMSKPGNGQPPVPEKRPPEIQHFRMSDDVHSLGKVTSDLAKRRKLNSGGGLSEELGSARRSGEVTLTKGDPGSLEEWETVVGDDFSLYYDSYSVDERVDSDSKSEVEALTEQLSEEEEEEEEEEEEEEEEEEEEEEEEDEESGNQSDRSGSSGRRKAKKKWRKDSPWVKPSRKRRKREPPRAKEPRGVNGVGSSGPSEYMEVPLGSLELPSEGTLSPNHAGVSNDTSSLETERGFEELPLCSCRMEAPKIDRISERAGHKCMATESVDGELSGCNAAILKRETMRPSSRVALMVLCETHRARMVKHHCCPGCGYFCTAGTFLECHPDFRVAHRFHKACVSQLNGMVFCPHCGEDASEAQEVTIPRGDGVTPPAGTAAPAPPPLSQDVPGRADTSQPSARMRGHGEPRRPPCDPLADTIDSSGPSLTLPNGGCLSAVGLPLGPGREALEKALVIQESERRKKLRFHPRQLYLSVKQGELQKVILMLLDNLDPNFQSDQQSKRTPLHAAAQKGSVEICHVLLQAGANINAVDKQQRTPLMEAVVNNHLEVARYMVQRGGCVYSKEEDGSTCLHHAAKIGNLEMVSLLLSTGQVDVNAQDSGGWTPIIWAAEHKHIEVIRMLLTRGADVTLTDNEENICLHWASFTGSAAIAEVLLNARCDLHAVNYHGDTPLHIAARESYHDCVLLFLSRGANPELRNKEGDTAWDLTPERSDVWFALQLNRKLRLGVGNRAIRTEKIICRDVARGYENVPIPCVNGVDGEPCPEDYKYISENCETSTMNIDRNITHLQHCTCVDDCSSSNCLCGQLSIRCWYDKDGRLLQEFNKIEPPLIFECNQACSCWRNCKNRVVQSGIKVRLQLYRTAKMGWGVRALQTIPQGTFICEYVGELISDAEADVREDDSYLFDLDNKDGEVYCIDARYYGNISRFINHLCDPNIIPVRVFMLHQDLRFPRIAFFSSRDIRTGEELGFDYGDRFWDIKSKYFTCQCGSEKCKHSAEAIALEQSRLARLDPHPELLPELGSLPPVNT
# Experiment: qHTS Assay for Inhibitors of Histone Lysine Methyltransferase G9a; further: nearly all actives have a fitted effect of over 75% in size
# Conditions: G9a H3K9 monomethylation, AlphaScreen, 2 h; activity, negative = inhibition: at 59 µM (top of the series) unless noted
# Method in brief: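 Enzyme 20 nM + cpd, 15 min RT; add b-H3K9 pep 500 nM / SAM 20 uM; 2 h RT; anti-H3K9me1 Ab 0.5 ug/mL + SA donor / anti-rabbit acceptor beads 20 ug/mL each, 10 min; AlphaScreen read.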
# On the % scale 0 is the no-effect control and ±100 the full control effect; potency means the concentration at half of the fitted maximal effect; tags describe the fitted curve by direction and shape.
SMILES,Potency,"activity, negative = inhibition"
CCOC(=O)N1CCN(S(=O)(=O)c2ccc(C(=O)N(CCCN(C)C)c3nc4c(F)cc(F)cc4s3)cc2)CC1,"inconclusive: 50.1 µM [inhibitor, partial curve]",–
COc1ccccc1NC(=O)CSc1nnc(Cn2c(=O)sc3ccccc32)n1C,"inconclusive: 35.5 µM [inhibitor, single point]",–
N#Cc1ccc(CN2CCN(C(=O)CC(NC(=O)c3ccccc3)c3ccccc3)CC2)cc1 (stereo not drawn),"inconclusive: 89.1 µM [inhibitor, partial curve, poor fit]",–
CCN1CCN(c2ccc(S(=O)(=O)N3CCCCC3)cc2NC(=O)/C=C/c2cc(OC)ccc2OC)CC1,"inconclusive: 70.8 µM [inhibitor, partial curve]",–
COc1cccc(/C=N/n2c(C)nc3ccccc3c2=O)c1O,"inconclusive: 8.91 µM [inhibitor, single point]",–
Cc1ccc(C(C)NC(=O)C2CCCC2)cc1C (stereo not drawn),"inconclusive: 79.4 µM [inhibitor, single point]",–
COc1ccccc1CN1CCCC(C(=O)N(C)Cc2ccccc2)C1 (stereo not drawn),–,inconclusive: -107% [inhibitor] [at 12.7 µM]
Cc1ccc(NC(=O)CN(C)C(=O)COc2ccc(C(=O)c3ccc(F)cc3)cc2)cc1,"inconclusive: 22.4 µM [inhibitor, single point]",–
O=C1C(Cc2ccccc2)Nc2ncnc(N3CCN(c4ccccc4)CC3)c2N1Cc1ccc(Cl)cc1 (stereo not drawn),"inconclusive: 2.82 µM [inhibitor, partial curve]",–
COc1ccccc1Nc1ccc(NS(=O)(=O)c2ccc(C(C)=O)cc2)cc1,active: 35.5 µM,–
CCCn1c(N)c(C(=O)CSc2nnc(-c3cccnc3)n2-c2ccc(C)cc2C)c(=O)[nH]c1=O,"inconclusive: 89.1 µM [inhibitor, single point]",–
CN1CCC(N(C)S(=O)(=O)c2ccc(NC(=O)COc3ccc(F)cc3)cc2)CC1,active: 11.2 µM,–
COc1ccc2[nH]c3c(=O)n(Cc4ccc(C(=O)NCC5CCCO5)cc4)c(=S)[nH]c3c2c1 (stereo not drawn),active: 1.26 µM,–
N#CC1=C(N)C(C#N)(C#N)C2(CCC3(CC2)OCCO3)C2CC3(CC=C12)OCCO3 (stereo not drawn),inactive,–
O=C(c1c[nH]c2ccc(S(=O)(=O)N3CCOCC3)cc2c1=O)N1CCN(c2ccccn2)CC1,"inconclusive: 5.62 µM [inhibitor, full curve, poor fit]",–
CCC(C)(C)NC(=O)C(c1ccc(OC)cc1)N(Cc1ccc(OC)cc1)C(=O)CCC(=O)Nc1cc(C)on1 (stereo not drawn),"inconclusive: 39.8 µM [inhibitor, single point]",–
COc1ccc(C2C(C(=O)OC3CCCCC3)=C(C)Nc3nnnn32)c(OC)c1OC (stereo not drawn),"inconclusive: 79.4 µM [inhibitor, single point]",–
COc1ccc(N(CC(=O)Nc2ccc(C(N)=O)cc2)S(=O)(=O)c2ccc(C)c([N+](=O)[O-])c2)cc1,"inconclusive: 79.4 µM [inhibitor, partial curve, poor fit]",–
CC/C(C)=N/NS(=O)(=O)c1ccc(C)c([N+](=O)[O-])c1,–,inconclusive: -99.3% [inhibitor]
O=C1CC(N2CCSCC2)C(=O)N1c1ccc(F)cc1 (stereo not drawn),"inconclusive: 44.7 µM [inhibitor, partial curve]",–
Nc1[nH]c2cc([N+](=O)[O-])ccc2c1-c1ccccn1,active: 44.7 µM,–

SMILES,Potency,"activity, negative = inhibition"
Cc1ccc(Cl)cc1N1CCN(C(=O)c2sc3nc4n(c(=O)c3c2C)CCC4)CC1,inactive,–
CN(CCO)C(=O)C1CCN(c2ncc(C(F)(F)F)cc2Cl)CC1,–,inactive: 40% [at 12.7 µM]
COc1ccc(C(=O)NCC(c2ccc(N(C)C)cc2)N2CCOCC2)cc1 (stereo not drawn),"inconclusive: 25.1 µM [inhibitor, partial curve, poor fit]",–
COc1ccc(NC(=O)N2CCCC3(CCN(C(=O)c4cnccn4)CC3)C2)cc1,–,inactive: -2.52% [at 12.7 µM]
Cc1c(NC(=O)CN2C(=O)NC(C)(c3ccc(OC(F)F)cc3)C2=O)c(=O)n(-c2ccccc2)n1C (stereo not drawn),active: 50.1 µM,–
Cc1ccc(CSc2nc3ccc(NC(=O)CC(C)C)cc3s2)cc1,inactive,–
COc1ccccc1NC(=O)CSc1nnc(Cc2cc(=O)[nH]c(=O)[nH]2)n1-c1ccccc1,"inconclusive: 15.8 µM [inhibitor, full curve]",–
Cc1ccc(-n2nnc3c(=O)n(CC(=O)NCc4ccccc4)cnc32)cc1,"inconclusive: 39.8 µM [inhibitor, partial curve, poor fit]",–
CCOC(=O)c1noc2ncn(Cc3ccc([N+](=O)[O-])cc3)c(=O)c12,inactive,–
O=C1CC(c2ccco2)Cc2nc(Nc3ccc(F)cc3)ncc21 (stereo not drawn),"inconclusive: 2.51 µM [inhibitor, partial curve, poor fit]",–
CCOC(=O)C1CCCN(Cc2ccc(O)c(OC)c2)C1 (stereo not drawn),active: 6.31 µM,–
CCn1cc(CN2CCCC(C(=O)Nc3cccc(-c4cc5ccccc5[nH]4)c3)C2)c(C)n1 (stereo not drawn),"inconclusive: 50.1 µM [inhibitor, partial curve, poor fit]",–
CSc1ccc(CCNC(=O)c2c(C)nn(-c3ccc(F)cc3)c2-n2cccc2)cc1,"inconclusive: 7.08 µM [inhibitor, single point]",–
Cn1nc(C(F)(F)F)cc1C(=O)NC1CCCCCC1,"inconclusive: 89.1 µM [inhibitor, single point]",–
CCOC(=O)c1c(NC(=O)c2cccs2)sc(C(=O)N(C)C)c1C,"inconclusive: 7.94 µM [inhibitor, full curve, poor fit]",–
Cc1ccccc1C(=O)Nc1sc2c(c1C(=O)N1CCCCC1)CCC(C(C)(C)C)C2 (stereo not drawn),"inconclusive: 31.6 µM [inhibitor, partial curve, poor fit]",–
CC(=O)Nc1ccc2c(c1)CN(c1cc(C)ccc1C)CO2,"inconclusive: 89.1 µM [inhibitor, single point]",–
COc1ccc(Oc2ncc3nc(-c4cccs4)c(=O)n(Cc4cccs4)c3n2)cc1,–,inactive: 5.84% [at 12.7 µM]
CC(=O)Nc1ccc(S(=O)(=O)N2CCN(Cc3ccncc3)CC2)cc1,"inconclusive: 28.2 µM [inhibitor, single point]",–
FC(F)(F)c1cccc(CN2CCC(c3cc(-c4cccs4)n[nH]3)CC2)c1,"inconclusive: 89.1 µM [inhibitor, single point]",–
Cc1cccc(-n2c(C)cc(/C=N/NC(N)=S)c2C)c1,"inconclusive: 20 µM [inhibitor, single point]",–

SMILES,Potency,"activity, negative = inhibition"
O=C(Nc1cc(F)ccc1F)C1CCN(C(=O)c2cnn(-c3ccccc3)c2-n2cccc2)CC1,inactive,–
Cc1ccc(-c2noc(C3CCCN(C(=O)c4ccc(C(C)(C)C)cc4)C3)n2)o1 (stereo not drawn),"inconclusive: 79.4 µM [inhibitor, single point]",–
C=CCNC(=S)Nc1ccc(Cl)c(S(=O)(=O)N2CCOCC2)c1,"inconclusive: 63.1 µM [inhibitor, single point]",–
COc1ccc(Cn2ccnc2SCC(=O)Nc2ccccc2F)cc1,"inconclusive: 56.2 µM [inhibitor, single point]",–
CCN(CC)C(NC(=O)c1ccccc1)C(=O)c1ccccc1 (stereo not drawn),"inconclusive: 50.1 µM [inhibitor, partial curve, poor fit]",–
Cc1ccc(-n2nc(CO)c(C(=O)NCc3cccnc3)n2)cc1C,inactive,–
Cc1c(-n2c(-c3ccccc3Cl)n[nH]c2=S)c(=O)n(-c2ccccc2)n1C,active: 44.7 µM,–
CNCC(=O)NC(CCCN=C(N)N)C(=O)NC(C(=O)NC(Cc1ccc(O)cc1)C(=O)NC(C(=O)NC(Cc1cnc[nH]1)C(=O)N1CCCC1C(=O)NC(C)C(=O)O)C(C)C)C(C)C (stereo not drawn),"inconclusive: 3.16 µM [inhibitor, single point]",–
CC(=O)N1CCC2(CC1)C/C(=N\NC(=S)Nc1ccccc1C)c1cc(O)ccc1O2,active: 31.6 µM,–
CSc1ccc(C2C(C#N)=C(N)Oc3cc4c(cc32)OCO4)cc1 (stereo not drawn),inactive,–
CCN(CC)S(=O)(=O)c1ccc(N2CCCC2)c(NC(=O)C2CCCCC2)c1,"inconclusive: 70.8 µM [inhibitor, partial curve]",–
COc1cc2nc(C3CCC3)n(NC(=O)C3CCC3)c(=O)c2cc1OC,inactive,–
COc1ccccc1NC(=O)CSCc1cc(=O)c2cccc(Cl)c2[nH]1,inactive,–
O=C(CN1CCN(Cc2ccccc2)CC1)NNC(=O)c1ccccc1,"inconclusive: 31.6 µM [inhibitor, single point]",–
N#Cc1cc(-c2ccccc2)oc1/N=C/c1ccccc1O,"inconclusive: 14.1 µM [inhibitor, partial curve, poor fit]",–
CSc1ncccc1C(=O)N1CCCC(CCC(=O)NCc2ccc(F)c(F)c2)C1 (stereo not drawn),"inconclusive: 89.1 µM [inhibitor, partial curve, poor fit]",–
CC(C)N(C1=N/C(=C\c2ccco2)C(=O)N1c1ccccc1)C(C)C,"inconclusive: 20 µM [inhibitor, single point]",–
CN(Cc1nc2c(s1)CCCC2)C(=O)CCc1nnc(-c2ccc3c(c2)OCO3)o1,"inconclusive: 44.7 µM [inhibitor, partial curve, poor fit]",–
O=C1Nc2ccccc2C(=O)C1(Cl)Cc1ccccc1 (stereo not drawn),"inconclusive: 1.12 µM [inhibitor, full curve, poor fit]",–
O=C(CSc1ncnc2nc[nH]c12)Nc1ccccc1C(F)(F)F,"inconclusive: 22.4 µM [inhibitor, single point]",–
COC(=O)c1ccc(NC(=O)CSc2nccn2CCc2ccccc2)cc1,active: 35.5 µM,–
